Source: PMC4336329 (PLoS ONE, 2015)
Screen size: about 310,000 compounds; about 2,200 (0.71%) showed an effect of 50% or more. Effects have a minus sign here. Some of the results follow.

What follows are molecules tested against human ether-à-go-go-related gene (hERG) potassium channel (human, UniProt Q12809) (assay: primary screen, population patch clamp on CHO cells stably expressing hERG).
Chain of human ether-à-go-go-related gene (hERG) potassium channel (Q12809 whole entry, looked up): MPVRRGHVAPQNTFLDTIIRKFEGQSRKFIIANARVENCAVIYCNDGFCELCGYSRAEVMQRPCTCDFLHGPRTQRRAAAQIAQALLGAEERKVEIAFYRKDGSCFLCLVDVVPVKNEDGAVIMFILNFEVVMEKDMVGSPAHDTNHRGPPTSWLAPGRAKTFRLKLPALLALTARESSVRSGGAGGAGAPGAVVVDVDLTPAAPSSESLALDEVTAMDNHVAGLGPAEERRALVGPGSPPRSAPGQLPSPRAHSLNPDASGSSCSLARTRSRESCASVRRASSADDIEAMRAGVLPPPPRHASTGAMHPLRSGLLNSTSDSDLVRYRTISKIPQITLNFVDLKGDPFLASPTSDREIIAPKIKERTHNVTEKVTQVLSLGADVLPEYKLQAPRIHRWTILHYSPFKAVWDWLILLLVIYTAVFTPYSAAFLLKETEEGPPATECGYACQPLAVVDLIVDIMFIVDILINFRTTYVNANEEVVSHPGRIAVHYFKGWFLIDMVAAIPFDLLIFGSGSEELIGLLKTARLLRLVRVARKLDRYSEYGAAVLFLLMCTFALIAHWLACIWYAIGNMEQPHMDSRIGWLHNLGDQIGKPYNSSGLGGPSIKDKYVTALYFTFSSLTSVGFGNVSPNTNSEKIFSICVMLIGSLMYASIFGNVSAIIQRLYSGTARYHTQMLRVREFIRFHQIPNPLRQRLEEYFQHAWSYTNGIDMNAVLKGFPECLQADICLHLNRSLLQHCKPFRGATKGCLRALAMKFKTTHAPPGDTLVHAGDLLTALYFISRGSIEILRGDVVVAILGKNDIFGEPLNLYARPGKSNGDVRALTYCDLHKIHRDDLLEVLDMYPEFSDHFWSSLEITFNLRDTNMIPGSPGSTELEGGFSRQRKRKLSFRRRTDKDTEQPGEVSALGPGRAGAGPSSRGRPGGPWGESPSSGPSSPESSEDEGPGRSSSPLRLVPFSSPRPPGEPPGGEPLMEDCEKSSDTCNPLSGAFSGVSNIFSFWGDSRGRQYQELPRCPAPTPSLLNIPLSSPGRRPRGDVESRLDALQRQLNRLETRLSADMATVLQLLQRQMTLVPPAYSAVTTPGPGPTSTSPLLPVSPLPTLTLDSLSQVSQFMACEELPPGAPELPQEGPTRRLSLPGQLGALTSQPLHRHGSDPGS
For `COc1ccccc1C(=O)NC(=O)COc1ccc([N+](=O)[O-])cc1`, the “hERG current change (%, negative = inhibition) at 1uM” value was 12.8%.
With `Cc1ccc(N(CCC#N)C(=O)CSc2nnc3ccccn23)cc1` the “hERG current change (%, negative = inhibition) at 1uM” value was -0.969%.
`Cc1ccc(N(CN2C(=O)C3C4CCC(C4)C3C2=O)C(=O)c2ccco2)cc1` (stereo not shown) was tested, and the “hERG current change (%, negative = inhibition) at 1uM” value was 9.32%.
With `O=C(CSc1n[nH]c(=O)n1-c1cccnc1)Nc1ccccc1Cl` the “hERG current change (%, negative = inhibition) at 1uM” value was 4.27%.
For `COc1ccccc1NC(=O)CC1S/C(=N/N=C2\CCCc3ccccc32)NC1=O` (stereo not shown), the “hERG current change (%, negative = inhibition) at 1uM” value was -11.2%.
`C=CCOc1ccccc1CN1CCC(Cc2ccccc2)CC1` was tested, and the “hERG current change (%, negative = inhibition) at 1uM” value was -51.6%.
In the case of `O=C(CNC(=O)c1ccccc1)NC1(C(=O)NC2CCCCC2)CCCCC1`, the “hERG current change (%, negative = inhibition) at 1uM” value was 0.935%.
`COC(=O)C1C(=O)C2=C(CC1C)NC(C)=C(C(=O)OCCOc1ccccc1)C2c1ccc(C)o1` (stereo not shown) was tested, and the “hERG current change (%, negative = inhibition) at 1uM” value was 9.19%.
In the case of `Cc1sc2ncnc(SCC(=O)NC3CCCC3)c2c1C`, the “hERG current change (%, negative = inhibition) at 1uM” value was 9.15%.
In the case of `Cc1cc(=O)n(CCCO)c(O)c1C#N`, the “hERG current change (%, negative = inhibition) at 1uM” value was 12.2%.
With `Cc1ccc(-c2nc3ccccc3c(=O)n2-c2cccnc2)cc1` the “hERG current change (%, negative = inhibition) at 1uM” value was 1.9%.
In the case of `CCOc1ccc(NC(=O)CN(C)c2ccc(S(=O)(=O)N3CCOCC3)cn2)cc1OCC`, the “hERG current change (%, negative = inhibition) at 1uM” value was 8.7%.
For `Cc1ccc(NC(C#N)c2ccccc2OCc2ccccc2)cc1` (stereo not shown), the “hERG current change (%, negative = inhibition) at 1uM” value was 2.43%.
In the case of `CS(=O)(=O)Nc1ccc2c(c1)OCC(=O)N2Cc1ccccc1`, the “hERG current change (%, negative = inhibition) at 1uM” value was -1.03%.
With `O=C(O)c1cccc(NC(=O)c2cc(S(=O)(=O)N3CCOCC3)cs2)c1` the “hERG current change (%, negative = inhibition) at 1uM” value was 5.77%.
In the case of `CN(C)S(=O)(=O)c1ccc(C(=O)Oc2coc(CSc3ncccn3)cc2=O)cc1`, the “hERG current change (%, negative = inhibition) at 1uM” value was 12%.
In the case of `CC(=O)Cc1nsc(NC(=O)c2ccc(COc3ccccc3C)o2)n1`, the “hERG current change (%, negative = inhibition) at 1uM” value was 7.7%.
`COCCN1C(=O)c2ccccc2C(C(=O)N2CCN(c3ccccc3)CC2)C1c1ccc(F)cc1` (stereo not shown) was tested, and the “hERG current change (%, negative = inhibition) at 1uM” value was 12.5%.
With `O=C(O)CCCN=CC1=C(O)C(C(=O)c2ccccc2)CCC1=O` (stereo not shown) the “hERG current change (%, negative = inhibition) at 1uM” value was 10.6%.
`COc1ccc(N=Nc2c(-c3ccc(OC)cc3)[nH]oc2=O)cc1` was tested, and the “hERG current change (%, negative = inhibition) at 1uM” value was 9.47%.
For `COC(=O)c1ccc2c(=O)n(CCN3CCOCC3)c(SCC(=O)Nc3ccc(C)cc3)nc2c1`, the “hERG current change (%, negative = inhibition) at 1uM” value was -22.2%.
With `Cc1ccc(OCc2cc(C(=O)N(C)Cc3cnn(-c4ccccc4C)c3)no2)cn1` the “hERG current change (%, negative = inhibition) at 1uM” value was -16%.
For `Cc1cc(C(=O)NC(=S)Nc2ccccc2N2CCOCC2)ccc1[N+](=O)[O-]`, the “hERG current change (%, negative = inhibition) at 1uM” value was 10%.
For `CCCN(C(=O)c1cc2c(s1)CCC2)c1c(N)n(Cc2ccccc2)c(=O)[nH]c1=O`, the “hERG current change (%, negative = inhibition) at 1uM” value was 13.3%.
`O=C(COC(=O)C1CCC(=O)N1)Nc1ccc(Br)cc1` (stereo not shown) was tested, and the “hERG current change (%, negative = inhibition) at 1uM” value was 12.2%.
`CC(=O)c1c(NC(=O)c2ccccc2)[nH]c(-c2ccccc2)nc1=S` was tested, and the “hERG current change (%, negative = inhibition) at 1uM” value was 4.82%.
`CC(C)(C)NC(=O)CN(Cc1cccs1)C(=O)CNS(=O)(=O)c1ccccc1` was tested, and the “hERG current change (%, negative = inhibition) at 1uM” value was 18.7%.
For `CC(C)(C)NC(=O)CSCc1ccc(Br)cc1`, the “hERG current change (%, negative = inhibition) at 1uM” value was 1.24%.
`COc1ccc(S(=O)(=O)N2CCCCC2)cc1NC(=O)c1cncc(Br)c1` was tested, and the “hERG current change (%, negative = inhibition) at 1uM” value was 3.01%.
`COc1ccc(-c2cc(C(=O)Nc3c(C)nn(Cc4ccccc4Cl)c3C)no2)cc1` was tested, and the “hERG current change (%, negative = inhibition) at 1uM” value was 12.8%.
With `Cn1c(CNC(=O)CCNC(=O)c2ccc(Br)cc2)cc(=O)n(C)c1=O` the “hERG current change (%, negative = inhibition) at 1uM” value was 5.63%.
In the case of `CCn1c(SC2CCOC2=O)nnc1-c1ccc(Cl)cc1` (stereo not shown), the “hERG current change (%, negative = inhibition) at 1uM” value was 10.8%.
`O=C(CSCc1ccccc1Cl)NN1C(=O)c2ccccc2C1=O` was tested, and the “hERG current change (%, negative = inhibition) at 1uM” value was -12.5%.
`COc1cc2c(=O)n(CCC(=O)NCC3CCCO3)c(=O)n(CC(=O)Nc3ccc(C)cc3C)c2cc1OC` (stereo not shown) was tested, and the “hERG current change (%, negative = inhibition) at 1uM” value was 14.4%.
In the case of `Cc1cccc(C)c1NC(=O)CN(C)C(=O)C(c1ccccc1)c1ccccc1`, the “hERG current change (%, negative = inhibition) at 1uM” value was 2.71%.
With `O=C(CO/N=C/c1ccc(OC(F)F)cc1)NCc1cccs1` the “hERG current change (%, negative = inhibition) at 1uM” value was -3.37%.
`COc1cccc2c(=O)c(C(=O)NCc3cccs3)c[nH]c12` was tested, and the “hERG current change (%, negative = inhibition) at 1uM” value was 23.5%.
For `O=C(c1cccc(COCC(F)(F)C(F)F)c1)N1CCN(c2ccccc2)CC1`, the “hERG current change (%, negative = inhibition) at 1uM” value was -7.92%.
In the case of `Cc1ccc(CNC(=S)Nc2cc(C(=O)O)ccc2C)cc1`, the “hERG current change (%, negative = inhibition) at 1uM” value was 13.1%.
With `O=C(Nc1ccccc1)c1ccc(Nc2c([N+](=O)[O-])cc([N+](=O)[O-])c3ccccc23)cc1` the “hERG current change (%, negative = inhibition) at 1uM” value was 12.9%.
In the case of `CC1C(=O)N2CCCc3cc(S(=O)(=O)NCc4ccc(F)cc4)cc1c32` (stereo not shown), the “hERG current change (%, negative = inhibition) at 1uM” value was 0.411%.
With `COc1ccc(COc2ccccc2C(=O)NCc2ccccc2)cc1F` the “hERG current change (%, negative = inhibition) at 1uM” value was 17.3%.
`Cc1sc2ncn(CC(=O)NCc3ccco3)c(=O)c2c1-c1ccccc1` was tested, and the “hERG current change (%, negative = inhibition) at 1uM” value was -1.52%.
In the case of `Cc1ccc(-c2nc(N)sc2-c2ccccc2)cc1C`, the “hERG current change (%, negative = inhibition) at 1uM” value was 13.3%.
In the case of `COc1ccc(CNc2nc3ccccc3s2)cc1OC`, the “hERG current change (%, negative = inhibition) at 1uM” value was 8.99%.
With `Nn1c(Cc2ccccc2)nc2ccccc2c1=O` the “hERG current change (%, negative = inhibition) at 1uM” value was 13.8%.
In the case of `COc1ccc(CC(NC(C)=O)C(=O)NC2CCN(S(=O)(=O)c3ccc(NC(C)=O)cc3)CC2)cc1` (stereo not shown), the “hERG current change (%, negative = inhibition) at 1uM” value was 14.1%.
In the case of `CCOCCCNC(=O)C1CCCN1C(=O)NC1CCCCC1` (stereo not shown), the “hERG current change (%, negative = inhibition) at 1uM” value was 9.54%.
With `COc1cc(/C=C/c2cc(C(=O)O)c3ccccc3n2)ccc1OC(F)F` the “hERG current change (%, negative = inhibition) at 1uM” value was 14.8%.
For `O=C(COC(=O)C1(c2ccccc2)CCCC1)N1CCNC1=O`, the “hERG current change (%, negative = inhibition) at 1uM” value was 1.78%.
In the case of `COc1ccc(CC(O)CC2c3c(cc4c(c3OC)OCO4)CCN2C)cc1.Cl` (stereo not shown), the “hERG current change (%, negative = inhibition) at 1uM” value was -51.8%.
For `CSc1ncccc1C(=O)Nc1nc2ccc(S(C)(=O)=O)cc2s1`, the “hERG current change (%, negative = inhibition) at 1uM” value was 10.4%.
`CC1(c2ccc(Cl)cc2)NC(=O)N(CC(=O)Nc2ccc(N3CCCCC3)cc2)C1=O` (stereo not shown) was tested, and the “hERG current change (%, negative = inhibition) at 1uM” value was 11.2%.
For `CCn1c(C2CC(=O)N(c3ccc(C)c(C)c3)C2)nc2ccccc21` (stereo not shown), the “hERG current change (%, negative = inhibition) at 1uM” value was 11.7%.
In the case of `Cc1ccccc1OCC(=O)N1CCc2ccccc2C1`, the “hERG current change (%, negative = inhibition) at 1uM” value was 15.1%.
